Source: publication PMC6919601, “Identification of Plasmodium dipeptidyl aminopeptidase allosteric inhibitors by high throughput screening” (PLoS ONE, 2019)
Out of some 110,000 compounds screened, about 230 (0.21%) showed an effect of 50% or more. Some of the results follow.

molecular target: DPAP1 (Plasmodium falciparum, UniProt Q8IIJ9); experiment: primary screen, percent inhibition; read by cleavage of a fluorogenic dipeptide substrate; higher = more effect of the substance; parameters: species or system P. falciparum D10 trophozoite lysates; single well
Sequence (Q8IIJ9 whole entry, looked up): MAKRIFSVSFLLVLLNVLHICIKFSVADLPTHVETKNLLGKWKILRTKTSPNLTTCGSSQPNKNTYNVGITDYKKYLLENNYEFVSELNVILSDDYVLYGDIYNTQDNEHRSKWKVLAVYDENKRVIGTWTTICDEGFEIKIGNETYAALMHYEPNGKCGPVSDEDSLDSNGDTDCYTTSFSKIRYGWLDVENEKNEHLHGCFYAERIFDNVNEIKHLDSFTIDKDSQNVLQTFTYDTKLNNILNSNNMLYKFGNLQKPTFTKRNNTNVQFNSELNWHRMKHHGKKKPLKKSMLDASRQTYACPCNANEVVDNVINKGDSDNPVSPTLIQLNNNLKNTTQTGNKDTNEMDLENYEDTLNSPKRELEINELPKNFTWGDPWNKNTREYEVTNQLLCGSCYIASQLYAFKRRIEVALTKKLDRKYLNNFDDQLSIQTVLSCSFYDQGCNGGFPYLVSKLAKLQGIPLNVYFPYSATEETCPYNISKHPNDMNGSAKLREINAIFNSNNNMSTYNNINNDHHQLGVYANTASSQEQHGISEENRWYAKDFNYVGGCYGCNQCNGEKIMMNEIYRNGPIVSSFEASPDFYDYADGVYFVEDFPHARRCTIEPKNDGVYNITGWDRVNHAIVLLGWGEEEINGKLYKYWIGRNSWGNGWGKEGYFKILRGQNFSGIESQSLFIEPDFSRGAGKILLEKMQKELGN
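Also: 30 min substrate incubation versus DMSO and 10 µM JCP410 controls.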

First: OCCN1CCN(CCOC2c3ccccc3CSc3ccc(Cl)cc32)CC1 (stereo not drawn)
Second: Brc1ccc(CN2CCN(Cc3cccnc3)CC2)cc1
The “% Inhibition @ 10 uM” value of the first is lower: -2.98% for the first, -1.65% for the second.

Going from `CC(C)(CO)Nc1ncnc2onc(-c3ccc(F)cc3)c12` to `CC(C)(C)c1ccc(-c2cc(N)n(S(=O)(=O)c3ccc(F)cc3)n2)cc1`, the “% Inhibition @ 10 uM” value falls from 3.94% to -11%.

Compared with `c1ccc(CN2CCC(N3CCSCC3)CC2)cc1`, `c1ccc(C2CCC(N3CCOCC3)CC2)cc1` (stereo not drawn) is lower in “% Inhibition @ 10 uM” value: 1.88% for the first, 1.57% for the second.

Going from `COc1cc(C2C(C(=O)c3cc4ccccc4o3)=C(O)C(=O)N2CCCN(C)C)cc(OC)c1OC` (stereo not drawn) to `COc1ccc(-c2ccc(CCC(=O)O)n2NC(=O)c2ccccc2OC)cc1`, the “% Inhibition @ 10 uM” value rises from -1.33% to -0.169%.

Going from `O=C(OCc1ccccc1Cl)c1ccc(-n2cccn2)cc1` to `O=C(NCCOCc1ccccc1)c1ccccc1Cl`, the “% Inhibition @ 10 uM” value rises from 1.76% to 2.18%.

Going from `O=C1CC(/C=C/c2ccccc2)=Nc2ccccc2N1` to `N=C1/C(=C/c2cccn2Cc2ccccc2)C(=O)N=C2SC=C(c3ccccc3)N12`, the “% Inhibition @ 10 uM” value falls from -2.42% to -3.28%.

Going from `CC1(C)CC(=O)c2c(-c3ccc(Cl)cc3Cl)n[nH]c2C1` to `C=C1c2cc(C)c(C)cc2NC(=O)N1c1cccc(Cl)c1`, the “% Inhibition @ 10 uM” value rises from -3.46% to 1.92%.

Going from `CC(=O)c1cc2ccc(O)cc2oc1=O` to `O=C(NCCn1ccc2ccccc21)c1cc2ccccc2oc1=O`, the “% Inhibition @ 10 uM” value rises from 0.035% to 1.97%.

Compared with `CCOC(=O)N1CCN(C(=O)CSc2nnc(CNC(=O)c3ccccc3F)o2)CC1`, `CCO/C(O)=C1\C(C)=NC(=S)NC1c1ccc(OCC(=O)N2CCOCC2)c(OC)c1` (stereo not drawn) is lower in “% Inhibition @ 10 uM” value: -1.58% for the first, -5.36% for the second.

First: COc1ccc(Br)cc1C1CC(=O)Nc2c1ccc1ccccc21 (stereo not drawn)
Second: CCSC1=C(C#N)C(c2cccc3ccccc23)CC(=O)N1 (stereo not drawn)
The “% Inhibition @ 10 uM” value of the first is lower: -0.173% for the first, 4.15% for the second.

Going from `CCc1ccccc1N(CC(=O)NC1CCCC1)S(=O)(=O)c1ccc(C)cc1` to `CCNC(=O)CN(Cc1ccccc1)S(=O)(=O)c1ccc(Cl)cc1`, the “% Inhibition @ 10 uM” value falls from -0.796% to -9.18%.

Going from `O=C(Nc1ccc(N2CCCC2)c(Cl)c1)c1ccc(Br)o1` to `COc1cc(SC)ccc1C(=O)Nc1cccc(Br)c1`, the “% Inhibition @ 10 uM” value rises from -0.473% to 0.777%.

Compared with `O=C(Nc1ccc(S(=O)(=O)NCCc2ccccc2)cc1)C1CCCO1` (stereo not drawn), `NC(=O)c1ccccc1NS(=O)(=O)c1ccc(F)cc1` is higher in “% Inhibition @ 10 uM” value: -5.35% for the first, 1.59% for the second.

First: CC(=O)n1cc(C2C(=O)NN=C2C)c2ccccc21 (stereo not drawn)
Second: Cc1nc(SCC(=O)c2ccccc2)c(C#N)c(C)c1C
The “% Inhibition @ 10 uM” value of the first is higher: 2.6% for the first, -0.712% for the second.

First: Cc1ccc(C)c(N2C(=O)CC(N3CCC(C(N)=O)CC3)C2=O)c1 (stereo not drawn)
Second: COc1ccc(C(=O)N2CCN(c3ccc(C)cc3)CC2)cc1OC
The “% Inhibition @ 10 uM” value of the first is higher: -0.545% for the first, -1.52% for the second.

First: C#CCNCc1ccco1
Second: CCc1cc(=O)oc2c3c(c(Cl)cc12)OCN(Cc1ccco1)C3
The “% Inhibition @ 10 uM” value of the first is higher: 1.67% for the first, -2.57% for the second.

First: CCOC(=O)c1cc(-c2ccccc2)n(CCC(=O)NC(C)c2ccccc2)c1C (stereo not drawn)
Second: CCN1C(c2ccccc2)C(C)C(=O)C(C)C1c1ccccc1 (stereo not drawn)
The “% Inhibition @ 10 uM” value of the first is higher: 12.7% for the first, 3.94% for the second.

Compared with `CCN(CC)CC(=O)Nc1sc2c(c1C(N)=O)CCCC2`, `CNC(=O)c1c(NC(=O)Cc2coc3c(C)c(C)ccc23)sc2c1CCCC2` is lower in “% Inhibition @ 10 uM” value: -1.54% for the first, -4.19% for the second.

Going from `Cc1nnc2c(NCc3ccc(F)cc3)nc3ccccc3n12` to `CC1=C(n2nnc3ccccc32)C(c2ccccc2)C(C#N)=C(N)O1` (stereo not drawn), the “% Inhibition @ 10 uM” value falls from 5.84% to 3.32%.

Compared with `COc1ccccc1OCC(=O)Nc1ccc(Cl)cc1`, `Cc1cccc(OCC(=O)Nc2ncccn2)c1` is higher in “% Inhibition @ 10 uM” value: -1.17% for the first, -1.04% for the second.

Compared with `COc1ccc2nc(SCC3=CC(C)(C)N(C(C)=O)c4ccccc43)nc(C)c2c1`, `COc1ccc2nc3c(nc2c1)C(=O)c1ccccc1-3` is lower in “% Inhibition @ 10 uM” value: -0.994% for the first, -4.61% for the second.

Compared with `CCc1cccc(C)c1NC(=O)CSc1nc2c(c(=O)n(C)c(=O)n2C)n1C`, `CCOC(=O)c1c(S(=O)(=O)NCCc2nc3ccccc3[nH]2)c(C)n(C)c1C` is lower in “% Inhibition @ 10 uM” value: 4.01% for the first, -5.5% for the second.

Compared with `Cc1cc(C)cc(NC(=O)C(C)Sc2ccccc2)c1` (stereo not drawn), `Cc1nn(C)cc1C(=O)Nc1c(C)nn(Cc2ccccc2Cl)c1C` is higher in “% Inhibition @ 10 uM” value: -2.88% for the first, 2.09% for the second.

First: CCOC(=O)c1cccc(Cn2nnc3sc4c(c3c2=O)CCC(C)C4)c1 (stereo not drawn)
Second: CCC1CCc2c(sc(NC(=O)CC(C)C)c2C#N)C1 (stereo not drawn)
The “% Inhibition @ 10 uM” value of the first is lower: -0.946% for the first, 5.66% for the second.

First: CCC1CCCCN1CCCNC(=O)CN1C(=O)C(c2ccccc2)Oc2cccnc21 (stereo not drawn)
Second: CN1C(C(=O)c2ccccc2)=C(N2CCCCC2)c2ccccc2S1(=O)=O
The “% Inhibition @ 10 uM” value of the first is lower: -2.39% for the first, -2.34% for the second.

First: CC1CC(OCC(O)CN2CCN(c3ccccc3F)CC2)CC(C)(C)C1 (stereo not drawn)
Second: CCC(=O)N1C(C(=O)NCc2ccc(OC)cc2)CSC12CCN(C)CC2 (stereo not drawn)
The “% Inhibition @ 10 uM” value of the first is higher: 17.4% for the first, -0.868% for the second.

Going from `CC(C)=C1C2CCC1C1C(=O)N(c3nccs3)C(=O)C21` (stereo not drawn) to `Cc1cc(C)n2nc(CC(=O)NC3CCCC(C)C3C)nc2n1` (stereo not drawn), the “% Inhibition @ 10 uM” value rises from -6.62% to 4.47%.

Compared with `C=CCOc1ccc(C2C(C#N)=C(N)OC3=C2C(=O)c2ccccc2C3=O)cc1` (stereo not drawn), `CSc1ccc(C2C(C#N)=C(N)Oc3[nH]c(C)nc32)cc1` (stereo not drawn) is lower in “% Inhibition @ 10 uM” value: 7.99% for the first, 1.02% for the second.

First: COc1ccc(-c2csc(/C(C#N)=C\c3cccs3)n2)cc1
Second: CCNc1nc(NCC)n2c(SCC(=O)c3cccs3)nnc2n1
The “% Inhibition @ 10 uM” value of the first is higher: 3.72% for the first, 0.9% for the second.

Going from `CCSc1nc(-c2ccccc2Cl)nc2c1Cc1c(CO)cnc(C)c1O2` to `CCn1cc(C2NC(=O)c3sc4nc(C(F)(F)F)cc(C)c4c3N2)c(C)n1` (stereo not drawn), the “% Inhibition @ 10 uM” value falls from 5.09% to -5.06%.

Going from `CCNC(=O)/C(=C\c1ccc2c(c1)OCO2)NC(=O)c1ccc(Br)cc1` to `CCN(CC)C(=S)NC(=O)c1cccnc1`, the “% Inhibition @ 10 uM” value falls from -2.64% to -3.48%.

Going from `CCn1c(SC)nc2sc3c(c2c1=O)CC(C)(C)OC3` to `CCO/C(O)=C1\C(C)=NC(=S)NC1c1cc(C(C)C)c(OC)cc1C` (stereo not drawn), the “% Inhibition @ 10 uM” value rises from -4.67% to -0.142%.

Compared with `CCN1CCCC1CNCc1ccc(OCc2ccc(Cl)nc2)c(OC)c1` (stereo not drawn), `CC1=C(C(=O)NCCCN2CCCC2=O)C2(CCCCC2)OC1=O` is lower in “% Inhibition @ 10 uM” value: -0.0678% for the first, -7.53% for the second.
